# Data: PubChem BioAssay AID493208 (National Center for Advancing Translational Sciences (NCATS), 2011)
# The campaign covered roughly 44,000 compounds. About 340 (0.77%) were called active. About 5% were inconclusive and are not listed. The call rests on the fitted dose curve; in most records, active means well fitted inhibition curve with a large enough effect; inconclusive means small, poorly fitted or top-dose-only effect; inactive means flat fitted curve, though single readings scatter. The list shows a part of the results.
# Test: Acumen qHTS Assay for Inhibitors of the mTORC1 Signaling Pathway in MEF (Tsc2-/-, p53-/-) Cells: Sytravon;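 further: plate controls were DMSO for no effect and rapamycin for full effect; nearly all actives have a fitted effect of over 50% in size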
# Conditions: phospho-rpS6 immunofluorescence/PI, 24 h; series mostly up to 38.3 µM; activity change, negative = inhibition: at the top concentration
# Summary of the method: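 Tsc2-/-, p53-/- mouse embryonic fibroblasts (empty-vector line) exposed to compound 24 hrs at 37 C, fixed, immunostained for phospho-rpS6 and counterstained with propidium iodide. Acumen laser scanning gives % positive cells from Alexa 488/PI ratio, thresholded using 7.5 nM rapamycin; PI count gives viability.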
row,SMILES,"activity change, negative = inhibition"
1,Cc1nn2c(=O)cc(COC(=O)COc3ccc(F)cc3)nc2s1,inactive: 2.57%
2,Cc1cccc(NC(=O)C2CCCN(S(=O)(=O)c3ccc(Br)s3)C2)c1 (stereo not given),inactive: 1.76%
3,Cc1nc2cccnc2n1-c1cccc(C(=O)NCCc2ccc(S(N)(=O)=O)cc2)c1,inactive: 0.838%
4,COc1ccc(NC(=O)CSc2nnc3scc(-c4ccc(Cl)cc4)n23)cc1,inactive: -2.75%
5,CCOC(=O)c1c(C)c(-c2ccccc2)n(CC(=O)Nc2cccc(F)c2)c1C,inactive: 1.26%
6,Cn1nnnc1SCCNCc1ccc(OCc2ccccc2)cc1,inactive: -2.29%
7,COC(=O)c1sccc1S(=O)(=O)N(CC(=O)NCc1ccccc1)c1ccc(C)c(C)c1,inactive: -4.87%
8,Cc1cccc(NC(=O)CN2C(=O)COc3ccc(S(=O)(=O)N4CCC(C)CC4)cc32)c1C,inactive: 0.254%
9,CCN(CC)CCCNC(=O)c1nn(-c2ccc(OC)c(Cl)c2)c(=O)c2c1c1ccccc1n2C,inactive: 0.618%
10,CCOc1ccc(NC(=O)CCS(=O)(=O)c2ccc(Br)s2)cc1,inactive: -4.97%
11,Cc1ccc(S(=O)(=O)N(CC(=O)N2CCc3ccccc3C2)c2ccc(C)c(C)c2)cc1,inactive: 9.27%
12,Cc1ccc(CNC(=O)Cn2c(=O)n(-c3ccc(C)c(F)c3)c(=O)c3sc4ccccc4c32)cc1,inactive: -6.02%
13,O=C(Nc1noc2ccccc12)c1c(F)cccc1F,inactive: -1.51%
14,Cc1cccc(-c2nc(CCNC(=O)c3ccccc3Br)cs2)c1,inactive: -16.3%
15,CCOC(=O)c1ccccc1NC(=O)N1CCCN(S(=O)(=O)c2ccc3c(ccn3CC)c2)CC1,inactive: -16.5%
16,CCc1ccc(CNC(=O)C2CCCN(c3nn4cc(-c5ccc(F)cc5)nc4s3)C2)cc1 (stereo not given),inactive: -3.67%
17,O=C(Nc1cc(F)ccc1F)c1ccc2c(c1)nnn2C1CCCC1,inactive: 1.59%
18,CCOc1ccc(-c2nc3c(C#N)c[nH]n3c2NC2CCCCC2)cc1,inactive: 1.54%
19,CCOC(=O)C1CCN(C(=O)C2CCN(c3nnc(C)c4c(C)n(-c5ccccc5)nc34)CC2)CC1,inactive: -5.34%
20,Cc1nn(CC(=O)NCc2ccccc2Cl)c(=O)c2cccn12,inactive: -4.76%
21,CCCC(=O)Nc1cc(C(=O)NCc2ccc(OC)cc2)ccc1S(=O)(=O)c1ccc(Cl)cc1,inactive: -9.43%
22,COc1ccc(-c2cc(OC(=O)c3ccc(F)cc3)c3c(C)oc(C)c3c(=O)c2)cc1OC,inactive: -0.842%
23,Cc1ccc(Cc2c(C)nn(-c3nc(C)c(C(=O)N4CCCCC4C)s3)c2C)cc1 (stereo not given),inactive: -4.59%
24,COc1ccc(-c2noc(CSc3nnc(-c4ccccc4)n3-c3ccc(F)cc3)n2)c(OC)c1,inactive: -0.927%

row,SMILES,"activity change, negative = inhibition"
1,COc1ccc(NC(=O)C2CCCN(S(=O)(=O)c3c(C)n[nH]c3C)C2)cc1OC (stereo not given),inactive: -7.75%
2,Cc1cccc(NC(=O)CN2c3ccccc3S(=O)(=O)c3ccccc32)c1C,inactive: -13.3%
3,CCc1nn(CC(=O)NCc2ccc(OC)cc2OC)c(=O)c2cc3c(OC)cccc3n12,inactive: 0.435%
4,CCC(=O)N1CCc2cc(S(=O)(=O)NC(C(=O)NCCc3ccc(Cl)cc3)C(C)C)ccc21 (stereo not given),inactive: 0.0834%
5,Cc1ccc(C)c(N2CCN(c3nccn4nc(-c5ccc(Br)cc5)cc34)CC2)c1,inactive: 13.4%
6,Cc1ccc(Cl)cc1NC(=O)C(NS(=O)(=O)c1cccc2nsnc12)c1ccccc1 (stereo not given),inactive: 5.08%
7,COc1ccc(NC(=O)C2CCCN(S(=O)(=O)c3ccc(Cl)cc3)C2)cc1 (stereo not given),inactive: -0.835%
8,O=C(COCc1cc(-c2cccs2)on1)NCc1ccccc1Cl,inactive: -3.06%
9,Cc1nc2nc(NC(=O)c3ccc(F)cc3)[nH]n2c(=O)c1Cc1ccccc1,inactive: -7.53%
10,COc1cc(C2c3c(oc4ccccc4c3=O)C(=O)N2c2nc(C)c(C)s2)ccc1O (stereo not given),inactive: 11%
11,O=C(NCc1ccccc1F)C1CCN(Cc2cc3ccccc3n2Cc2cccc(Cl)c2)CC1,inactive: -12.8%
12,Cc1cccn2c(=O)c(/C=C(\C#N)c3nc4ccccc4s3)c(Oc3ccc(Br)cc3)nc12,inactive: -7.69%
13,Cn1c(=O)oc2cc(S(=O)(=O)CCC(=O)NCCc3ccccc3)ccc21,inactive: -1.47%
14,Cc1ccccc1NC(=O)Nc1ccc2nc(N3CCN(C)CC3)cc(C)c2c1,inactive: -3.03%
15,CC(=O)c1cc(-c2ccc(F)cc2)n(CC(=O)NC(C)c2ccccc2)c1C (stereo not given),inactive: -0.207%
16,COc1cccc(C(=O)NC(=O)Nc2ccc(-n3nc(C(F)(F)F)cc3C(F)(F)F)cc2)c1,inactive: -14.1%
17,COc1ccc(CNCc2ccc3c(c2)n(C)c(=O)n3C)cc1,inactive: -9.08%
18,CC(=O)c1ccc(NC(=O)C2=CC(c3cccs3)=NS(=O)(=O)N2C)cc1,inactive: -5.47%
19,COc1cc(Nc2nc(SCc3cccc(Cl)c3)nc3ccccc23)cc(OC)c1,inactive: 1.83%
20,Cc1nc2c(c(C)nn2-c2ccccc2)c(C)c1CCC(=O)Nc1ccc(F)cc1,inactive: 0.985%
21,CCN(c1ccccc1)S(=O)(=O)c1ccc(NC(=O)c2cc(=O)c3ccc(C)c(C)c3o2)cc1,inactive: -0.137%
22,Cc1ccc2c(CC(=O)Nc3c(C(=O)c4ccc(F)cc4)oc4ccccc34)coc2c1,inactive: 3.24%
23,CCC(=O)OCc1cnc(C)c2oc(=O)c(C(=O)Nc3ccc(CC)cc3)cc12,inactive: 5.3%
24,COc1ccc(-c2nc3c(c(SCc4cc(C)ccc4C)n2)Cc2c(CO)cnc(C)c2O3)cc1,inactive: 2.56%

row,SMILES,"activity change, negative = inhibition"
1,COc1ccc(N2CCN(C(=O)c3nn(C)c4c3CS(=O)(=O)c3ccccc3-4)CC2)cc1,inactive: 6.69%
2,COc1ccc(CCNC(=O)CS(=O)Cc2nc(-c3ccc(C)cc3)oc2C)cc1OC (stereo not given),inactive: 0.857%
3,O=C(CCSCc1ccc(Cl)cc1)N1CCN(c2ccccc2F)CC1,inactive: -14.9%
4,COc1ccccc1Nc1nn2c(=O)c3ccc(C(=O)Nc4ccc(F)cc4)cc3nc2s1,inactive: -18.5%
5,NC(=O)c1cc(S(=O)(=O)NCc2ccc(Br)cc2)cs1,inactive: -3.39%
6,CCOc1ccc2oc(=O)cc(CN3CCN(C(=O)c4cccc(F)c4)CC3)c2c1,inactive: 1.61%
7,CCCN(CCC)CCNC(=O)Cn1ncc2c([nH]c3ccc(C)cc32)c1=O,inactive: 0.811%
8,CCOC(=O)c1ccc(NC(=O)CCc2c(C)n(CC)c3cc(-c4ccccc4OC)nn3c2=O)cc1,inactive: -16.9%
9,CCOC(=O)c1[nH]c(C)c(CCC(=O)NCc2ccc(C)cc2)c1C,inactive: 6.08%
10,CCc1cccc(-n2c(=O)c3cccnc3n2CC(=O)NCc2ccccc2Cl)c1,inactive: 5.96%
11,COc1ccc(N2CCN(C(=O)c3ccc(NC(=O)c4nsc5ccccc45)cc3)CC2)cc1,inactive: 1.28%
12,O=C(/C=C\c1ccc2c(c1)OCO2)NC1CC(=O)N(c2ccc(F)cc2)C1 (stereo not given),inactive: -0.155%
13,CCOCCCNC(=O)c1cc2c(=O)n3ccccc3nc2s1,inactive: -16.3%
14,CC(C)(C)c1ccc(C(=O)Nc2cc(-c3ccccc3)nn2-c2ccccc2)cc1,inactive: 5.72%
15,Cc1ccc(C)c(N2CCN(C(=O)c3cc4cc5ccc(C)cc5nc4s3)CC2)c1,inactive: 1.71%
16,Cc1ccc(CNc2nc3c(S(=O)(=O)c4ccc(C)c(C)c4)nnn3c3ccc(Cl)cc23)cc1,inactive: 0.117%
17,Cc1ccc(CSc2oc(-c3ccco3)nc2S(=O)(=O)c2ccc(Br)cc2)cc1,inactive: -14%
18,CC1CCN(C(=O)CSc2nc3c([nH]c4ccccc43)c(=O)n2-c2ccccc2)CC1,inactive: 5.68%
19,O=C(CN1CCN(c2ccc(Cl)cc2)CC1)Nc1ccc(Cl)c(C(F)(F)F)c1,inactive: 0%
20,Cc1ccc(CNC(=O)CCn2ccc3cc(S(=O)(=O)N4CCCC4)ccc32)cc1,inactive: -9.05%
21,CCOc1ccc(-n2c(=O)c3c4c(sc3n(Cc3cc(=O)n5cc(Cl)ccc5n3)c2=O)CCC4)cc1,inactive: 0.21%
22,CCc1ccc(NC(=O)Cn2c(=O)n(Cc3nc(C)no3)c(=O)c3cc4c(cc32)OCO4)cc1,inactive: 1.11%
23,COc1ccccc1NC(=O)CSc1nnc(-c2nonc2NC(C)=O)n1-c1ccccc1,inactive: -11.8%
24,Cc1ccc(CN2CCC(CNC(=O)c3cnn(-c4ccccc4)c3C3CCN(C(=O)OC(C)(C)C)CC3)CC2)cc1,inactive: 1.35%

row,SMILES,"activity change, negative = inhibition"
1,Cc1ccc2c(c1)C(=O)C(=O)N2Cc1ccc(OCCC(C)C)cc1,inactive: -12.8%
2,COc1ccc(NC(=O)c2cc(C(C)=O)n3ccccc23)cc1,inactive: 7.36%
3,COc1ccc(NC(=O)c2oc3ccc(S(=O)(=O)N4CCCCC4)cc3c2C)cc1Cl,inactive: 11.5%
4,Cc1ccc2nc(NC(=O)c3nc(SCc4ccccc4F)ncc3Cl)sc2c1,inactive: 0.759%
5,CSc1ncc(Cl)c(C(=O)Nc2cc(C(F)(F)F)ccc2Cl)n1,inactive: -6.08%
6,COc1cc2c(=O)n(Cc3ccco3)c(=O)n(CC(=O)Nc3ccc(F)cc3)c2cc1OC,inactive: 2.9%
7,CCOc1cc2[nH]c(=O)n(Cc3ccc(C(=O)N4CCN(c5ccccc5)CC4)cc3)c(=O)c2cc1OCC,inactive: 0.123%
8,Cc1nc(-c2ccc(Cl)cc2)sc1CCNC(=O)C(=O)Nc1ccc2c(c1)OCCO2,inactive: 1.01%
9,O=C(CSc1nc(=O)n(Cc2cccnc2)c2c1CCC2)Nc1cccc(Cl)c1,inactive: -4.16%
10,O=C(O)c1ccc(NCc2nc3ccccc3n2CCOc2ccccc2Cl)cc1,inactive: 1.15%
11,CCOC(=O)N1CCC(NC(=O)c2cnn(-c3ccc(F)cc3)c2-n2cccc2)CC1,inactive: 1.73%
12,COc1ccc(N(C)C(=O)c2nn(-c3ccc(C)cc3)c(=O)n(C)c2=O)c(OC)c1,inactive: -2.07%
13,Cc1cc(C)cc(NC(=O)N2CCC(C(N)=O)(N3CCCCC3)CC2)c1,inactive: 0.338%
14,COc1ccc(CNC(=O)CC(C)n2nc(C)cc2C)cc1 (stereo not given),inactive: 0%
15,COc1ccc(N2CC(NC(=O)C(=O)c3c[nH]c4ccccc34)CC2=O)cc1 (stereo not given),inactive: 0.257%
16,Cc1ccc(-c2nn(-c3ccc(F)cc3F)c3c2cnc2ccc(F)cc23)cc1,inactive: 0%
17,O=C(CSc1ncc2c(n1)-c1cc(Cl)ccc1N(Cc1ccccc1)S2(=O)=O)Nc1ccc(F)cc1F,inactive: 11.7%
18,CC(C)Oc1ccc(C(=O)N2CCN(c3nc4c(F)cc(F)cc4s3)CC2)cc1,inactive: -1.4%
19,O=c1c(N2CCN(c3ccccc3)CC2)csc2ccc(Cl)cc12,inactive: 0.178%
20,O=C(CCSCc1cccc(Cl)c1)NCc1ccccc1Cl,inactive: 3.12%
21,CCCCn1cc(S(=O)(=O)c2ccccc2)c(=O)c2cc(F)c(N3CCN(CCC)CC3)cc21,inactive: -2.29%
22,CC1CCCN(c2ncnc3c2cnn3-c2ccc(F)cc2)C1 (stereo not given),inactive: 10.6%
23,CCN1c2ccccc2-n2cccc2C12CCN(C(=O)Nc1ccccc1Br)CC2,inactive: -7.72%
